Laboratory results published in the supplement of paper PMC8728848.
Some of the results follow.

How the values were obtained:
Experiment in all cases: glycan array binding signal (z-score within array); higher = stronger binding
Conditions in all cases: glycan notation: IUPAC condensed, linker removed
[1] = biological target: Man(a1-2)Man(a1-6)[Man(a1-3)]Man(a1-6)[Man(a1-2)Man(a1-2)Man(a1-3)]Man
How it was run: (§1)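 Glycan array data were curated from 3228 arrays in the Consortium for Functional Glycomics database and kept only where the protein sequence was available. Glycan names were converted to IUPAC-condensed notation, and columns mapping to the same glycan were averaged. The binding signal is a within-array Z-score, averaged across arrays of the same protein sequence at different concentrations or buffers and across linkers. Negative Z-scores can be read as non-binding.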

[2] = biological target: Man(a1-2)Man(a1-6)[Man(a1-3)]Man(a1-6)[Man(a1-2)Man(a1-2)Man(a1-3)]Man(b1-4)GlcNAc(b1-4)GlcNAc
How it was run: as §1

[3] = biological target: Man(a1-3)[Man(a1-6)]Man
How it was run: as §1

[4] = biological target: Man(a1-3)[Man(a1-6)]Man(a1-6)[Man(a1-2)Man(a1-3)]Man(b1-4)GlcNAc(b1-4)GlcNAc
How it was run: as §1

[5] = biological target: Man(a1-3)[Man(a1-6)]Man(a1-6)[Man(a1-3)]Man
How it was run: as §1

[6] = biological target: Man(a1-3)[Man(a1-6)]Man(a1-6)[Man(a1-3)]Man(b1-4)GlcNAc(b1-4)GlcNAc
How it was run: as §1

[7] = biological target: Man(a1-3)[Man(a1-6)]Man(b1-4)GlcNAc(b1-4)GlcNAc
How it was run: as §1

[8] = biological target: Man(a1-6)Man
How it was run: as §1

[9] = biological target: Man(b1-4)GlcNAc
How it was run: as §1

[10] = biological target: Neu5Ac(a2-3)Gal
How it was run: as §1

[11] = biological target: Neu5Ac(a2-3)Gal(b1-3)GalNAc
How it was run: as §1

[12] = biological target: Neu5Ac(a2-3)Gal(b1-3)GalNAc(b1-3)Gal(a1-4)Gal(b1-4)Glc
How it was run: as §1

[13] = biological target: Neu5Ac(a2-3)Gal(b1-3)GalNAc(b1-3)Gal(b1-4)GlcNAc
How it was run: as §1

[14] = biological target: Neu5Ac(a2-3)Gal(b1-3)GalNAc(b1-4)[Neu5Ac(a2-3)]Gal(b1-4)Glc
How it was run: as §1

[15] = biological target: Neu5Ac(a2-3)Gal(b1-3)GalNAc6S
How it was run: as §1

[16] = biological target: Neu5Ac(a2-3)Gal(b1-3)GlcNAc
How it was run: as §1

[17] = biological target: Neu5Ac(a2-3)Gal(b1-3)GlcNAc(b1-3)Gal(b1-3)GlcNAc
How it was run: as §1

[18] = biological target: Neu5Ac(a2-3)Gal(b1-3)GlcNAc6S
How it was run: as §1

[19] = biological target: Neu5Ac(a2-3)Gal(b1-3)[Fuc(a1-4)]GlcNAc
How it was run: as §1

[20] = biological target: Neu5Ac(a2-3)Gal(b1-3)[Fuc(a1-4)]GlcNAc(b1-3)Gal(b1-3)[Fuc(a1-4)]GlcNAc
How it was run: as §1

[21] = biological target: Neu5Ac(a2-3)Gal(b1-3)[Fuc(a1-4)]GlcNAc(b1-3)Gal(b1-4)[Fuc(a1-3)]GlcNAc
How it was run: as §1

[22] = biological target: Neu5Ac(a2-3)Gal(b1-3)[Neu5Ac(a2-3)Gal(b1-4)]GlcNAc
How it was run: as §1

[23] = biological target: Neu5Ac(a2-3)Gal(b1-3)[Neu5Ac(a2-6)]GalNAc
How it was run: as §1

[24] = biological target: Neu5Ac(a2-3)Gal(b1-4)Glc
How it was run: as §1

[25] = biological target: Neu5Ac(a2-3)Gal(b1-4)GlcNAc
How it was run: as §1

[26] = biological target: Neu5Ac(a2-3)Gal(b1-4)GlcNAc(b1-2)Man(a1-3)[GlcNAc(b1-2)Man(b1-4)GlcNAc(b1-2)Man(a1-6)]Man(b1-4)GlcNAc(b1-4)GlcNAc
How it was run: as §1

[27] = biological target: Neu5Ac(a2-3)Gal(b1-4)GlcNAc(b1-2)Man(a1-3)[Neu5Ac(a2-6)Gal(b1-4)GlcNAc(b1-2)Man(a1-6)]Man(b1-4)GlcNAc(b1-4)GlcNAc
How it was run: as §1

[28] = biological target: Neu5Ac(a2-3)Gal(b1-4)GlcNAc(b1-3)Gal(b1-3)GlcNAc
How it was run: as §1

[29] = biological target: Neu5Ac(a2-3)Gal(b1-4)GlcNAc(b1-3)Gal(b1-4)GlcNAc
How it was run: as §1

[30] = biological target: Neu5Ac(a2-3)Gal(b1-4)GlcNAc(b1-3)Gal(b1-4)GlcNAc(b1-3)Gal(b1-4)GlcNAc
How it was run: as §1

[31] = biological target: Neu5Ac(a2-3)Gal(b1-4)GlcNAc(b1-3)Gal(b1-4)[Fuc(a1-3)]GlcNAc
How it was run: as §1

[32] = biological target: Neu5Ac(a2-3)Gal(b1-4)GlcNAc(b1-3)GalNAc
How it was run: as §1

[33] = biological target: Neu5Ac(a2-3)Gal(b1-4)GlcNAc(b1-6)[Gal(b1-3)]GalNAc
How it was run: as §1

[34] = biological target: Neu5Ac(a2-3)Gal(b1-4)GlcNAc(b1-6)[Neu5Ac(a2-3)Gal(b1-3)]GalNAc
How it was run: as §1

[35] = biological target: Neu5Ac(a2-3)Gal(b1-4)GlcNAc6S
How it was run: as §1

[36] = biological target: Neu5Ac(a2-3)Gal(b1-4)[Fuc(a1-3)]GlcNAc
How it was run: as §1

[37] = biological target: Neu5Ac(a2-3)Gal(b1-4)[Fuc(a1-3)]GlcNAc(b1-3)Gal
How it was run: as §1

[38] = biological target: Neu5Ac(a2-3)Gal(b1-4)[Fuc(a1-3)]GlcNAc(b1-3)Gal(b1-4)GlcNAc
How it was run: as §1

B1: Spy0252 (Streptococcus pyogenes), Q9A1I9_STRP1 (protein)
chain: MNMKKLASLAMLGASVLGLAACGGKSQKEAGASKSDTAKTEITWWAFPVFTQEKAEDGVGTYEKKLIAAFEKANPEIKVKLETIDFTSGPEKITTAIEAGTAPDVLFDAPGRIIQYGKNGKLADLNDLFTEEFTKDVNNDKLIQASKAGDTAYMYPISSAPFYMALNKKMLKDAGVLDLVKEGWTTDDFEKVLKALKDKGYNPGSFFANGQGGDQGPRAFFANLYSSHITDDKVTKYTTDDANSIKAMTKISNWIKDGLMMNGSQYDGSADIQNFANGQTSFTILWAPAQPGIQAKLLEASKVDYLEIPFPSDDGKPELEYLVNGFAVFNNKDEQKVAASKTFIQFIADDKEWGPKNVVRTGAFPVRTSYGDLYKDKRMEKIAEWTKFYSPYYNTIDGFAEMRTLWFPMVQAVSNGDEKPEDALKAFTEKANKTIKKTQ
glycan array binding signal (z-score) [1]: -0.265 | glycan array binding signal (z-score) [2]: -0.236 | glycan array binding signal (z-score) [3]: -0.267 | glycan array binding signal (z-score) [4]: -0.273 | glycan array binding signal (z-score) [5]: -0.272 | glycan array binding signal (z-score) [6]: -0.271 | glycan array binding signal (z-score) [7]: -0.269 | glycan array binding signal (z-score) [8]: -0.283 | glycan array binding signal (z-score) [9]: -0.263 | glycan array binding signal (z-score) [10]: -0.256 | glycan array binding signal (z-score) [11]: -0.243 | glycan array binding signal (z-score) [12]: 0.826 | glycan array binding signal (z-score) [13]: -0.267 | glycan array binding signal (z-score) [14]: -0.256 | glycan array binding signal (z-score) [15]: -0.268 | glycan array binding signal (z-score) [16]: -0.26 | glycan array binding signal (z-score) [17]: -0.195 | glycan array binding signal (z-score) [18]: -0.246 | glycan array binding signal (z-score) [19]: -0.279 | glycan array binding signal (z-score) [20]: 0.235 | glycan array binding signal (z-score) [21]: 0.363 | glycan array binding signal (z-score) [22]: -0.223 | glycan array binding signal (z-score) [23]: -0.085 | glycan array binding signal (z-score) [24]: 5.54 | glycan array binding signal (z-score) [25]: -0.276 | glycan array binding signal (z-score) [26]: -0.262 | glycan array binding signal (z-score) [27]: -0.259 | glycan array binding signal (z-score) [28]: -0.263 | glycan array binding signal (z-score) [29]: -0.274 | glycan array binding signal (z-score) [30]: -0.26 | glycan array binding signal (z-score) [31]: 6.21 | glycan array binding signal (z-score) [32]: -0.253 | glycan array binding signal (z-score) [33]: -0.236 | glycan array binding signal (z-score) [34]: -0.275 | glycan array binding signal (z-score) [35]: -0.268 | glycan array binding signal (z-score) [36]: -0.267 | glycan array binding signal (z-score) [37]: -0.258 | glycan array binding signal (z-score) [38]: -0.231
